PMC4336329 (PLoS ONE, 2015)
Among all 310,000 compounds or so, about 2,200 (0.71%) showed an effect of 50% or more. The effect is printed as a negative number. Some of the results follow.

Molecular target: human ether-à-go-go-related gene (hERG) potassium channel (human, UniProt Q12809)
Assay: primary screen, population patch clamp on CHO cells stably expressing hERG

Chain of human ether-à-go-go-related gene (hERG) potassium channel (Q12809 whole entry, looked up): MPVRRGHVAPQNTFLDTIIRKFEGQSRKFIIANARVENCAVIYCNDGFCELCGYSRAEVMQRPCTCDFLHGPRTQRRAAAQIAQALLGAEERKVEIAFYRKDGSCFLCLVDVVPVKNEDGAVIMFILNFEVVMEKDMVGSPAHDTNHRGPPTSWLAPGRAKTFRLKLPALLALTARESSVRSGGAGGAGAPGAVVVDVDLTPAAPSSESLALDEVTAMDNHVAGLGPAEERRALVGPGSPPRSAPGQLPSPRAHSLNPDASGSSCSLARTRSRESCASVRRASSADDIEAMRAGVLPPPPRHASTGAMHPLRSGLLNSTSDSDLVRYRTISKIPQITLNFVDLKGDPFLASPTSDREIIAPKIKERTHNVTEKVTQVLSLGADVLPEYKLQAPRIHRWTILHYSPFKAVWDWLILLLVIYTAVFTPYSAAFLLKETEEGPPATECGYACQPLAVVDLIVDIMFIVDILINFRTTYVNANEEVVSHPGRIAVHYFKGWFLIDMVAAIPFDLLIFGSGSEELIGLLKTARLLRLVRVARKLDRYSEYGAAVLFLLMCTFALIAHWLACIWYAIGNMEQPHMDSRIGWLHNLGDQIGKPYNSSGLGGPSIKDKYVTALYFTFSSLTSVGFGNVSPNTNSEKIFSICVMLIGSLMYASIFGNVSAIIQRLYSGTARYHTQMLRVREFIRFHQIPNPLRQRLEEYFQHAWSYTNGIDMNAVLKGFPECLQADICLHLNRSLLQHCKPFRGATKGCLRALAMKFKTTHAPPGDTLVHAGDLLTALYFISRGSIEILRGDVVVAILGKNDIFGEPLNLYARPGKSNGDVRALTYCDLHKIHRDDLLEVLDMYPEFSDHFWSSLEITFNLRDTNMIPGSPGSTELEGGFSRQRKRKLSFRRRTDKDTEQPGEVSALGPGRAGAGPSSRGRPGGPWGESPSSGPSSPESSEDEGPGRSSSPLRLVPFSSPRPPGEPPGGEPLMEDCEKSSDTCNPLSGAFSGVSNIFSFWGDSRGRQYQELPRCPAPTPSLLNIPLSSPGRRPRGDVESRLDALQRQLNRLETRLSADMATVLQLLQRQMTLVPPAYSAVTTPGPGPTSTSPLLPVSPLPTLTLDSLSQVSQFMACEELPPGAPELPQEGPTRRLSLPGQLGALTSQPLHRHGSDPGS

Compound | hERG current change (%, negative = inhibition) at 1uM [%]
COC(=O)CCCC1=CC2=C(c3ccccc3)C(=O)C(C)(OC(=O)C3CCCC3)C(=O)C2=CN1C1CCCCC1 (centres unmarked) | 4.56
COc1ccc(CCNc2oc(Cc3ccccc3)nc2C#N)cc1OC | -1.05
Cc1ccc(S(=O)(=O)Nc2cc(Cl)ccc2-n2cncn2)cc1 | 14.3
Cc1cccc(-c2onc3ccc(C(=O)/C=C/N(C)C)cc23)c1 | 5.8
Nc1[nH]c(N=NC(=O)c2ccccc2O)c2ccccc12 | -57.5
Cc1cc(C(=O)NNc2c(Cl)cccc2Cl)no1 | 8.19
COc1cc(NC(=O)COc2ccccc2Cl)ccc1NC(=O)c1cccs1 | -13
O=C(NC1=NCCS1)c1ccc(Cl)c(S(=O)(=O)N2CCCCCC2)c1 | 7.71
CC(C)OC(=O)c1ccc(N2C(=O)C3CC=CCC3C2=O)cc1 (centres unmarked) | 22.7
CCCC1S/C(=N/N=C/c2ccco2)NC1=O (centres unmarked) | -2.31
CCN(c1cccc(C)c1)S(=O)(=O)c1ccc(-n2cccn2)cc1 | 10.2
O=C(NCc1nc2ccccc2[nH]1)c1ccccc1F | 14
Cc1cc(C(=O)C(C)OC(=O)C2=NNC(=O)CC2)c(C)n1-c1ccc(OC(F)F)cc1 (centres unmarked) | 1.87
O=C(COc1ccccc1)NS(=O)(=O)c1ccccc1 | 5.6
Cc1cc(C)n(-c2nc3ccccc3nc2N2CCN(C(=O)c3ccc(Cl)cc3)CC2)n1 | 10.6
O=C(CSC1=NS(=O)(=O)c2cc(F)ccc2N1)NCc1ccc(F)cc1 | -0.235
Cn1cnnc1SCC(=O)c1c(N)n(Cc2ccccc2)c(=O)n(C)c1=O | 10.6
COc1ccc(NC(=O)c2c([N+](=O)[O-])c(C(C)(C)C)nn2C)cc1 | 14.2
O=C(Nc1ccc(Br)cc1)c1cccc(OC(=S)N2CCOCC2)c1 | 8.6
C/C(CC(=O)Nc1ccc2c(c1)OCCO2)=N\NC(=O)c1cccc(O)c1 | 14.6
Brc1ccc(C=Nc2ccc(Nc3ccccc3)cc2)s1 | 14.7
Cc1ccccc1NC(=O)CSc1nn2c(=O)c(C)nnc2s1 | 8.3

Compound | hERG current change (%, negative = inhibition) at 1uM [%]
Cc1nc(SCC(=O)NC2CC2)c2c(C)c(C)sc2n1 | 12.4
Cc1c(OC(C)C(=O)N2C[C@H]3C[C@@H](C2)c2cccc(=O)n2C3)ccc2c3c(c(=O)oc12)CCCC3 (some centres unmarked) | 5.92
Cc1nc(-c2cccc(S(=O)(=O)N3CCCCCC3)c2)cs1 | 4.09
COCCCN=Cc1c(C)[nH]n(-c2ccc(Br)cc2Br)c1=O | 16.4
CC(c1nnnn1C(C)(C)C)N(Cc1cccnc1)Cc1ccccc1Cl (centres unmarked) | -1.02
COc1ccccc1-n1nnnc1SCC(=O)Nc1ccccc1 | 17.5
Cc1oc(-c2cc(F)ccc2F)nc1CN1CCC(C(=O)N2CCOCC2)CC1 | -22.9
O=C(Nc1ccc(F)c(Cl)c1)Nc1ccc(Cl)cn1 | 7.89
N#Cc1cccc(CN2CCCN(Cc3ccc(F)cc3)S2(=O)=O)c1 | 0.861
O=C(CSc1ccc(-c2ccccn2)nn1)N1CCc2ccccc21 | 8.73
COc1ccc(NC(=O)CSc2ccccc2)cn1 | 10.7
CCCS(=O)(=O)N1CCC(C(=O)NCCN2CCCC2)CC1 | -1.86
COC(=O)c1cn(NC(=O)Cc2ccc(Cl)cc2)c(=O)c2ccccc12 | -9.51
CCc1ccc(N2C(=O)CC(Cn3nc(C)cc3C)C2=O)cc1 (centres unmarked) | 5.97
Cc1ccsc1/C=C/c1ccc2ccccc2n1 | 3.71
NC(=O)c1ccc(-n2nnnc2Oc2ccccc2)cc1 | 12.2
CCOc1ccc(NC(=O)n2ncc3c(C)cccc32)cc1 | 15.5
CCC(=O)c1cc2c(cc1NC(=O)c1ccc(C)cc1)OCCO2 | 11.1
O=C(Nc1ccccc1F)C1CCN(C(=O)Cc2ccccc2)CC1 | 8.08
O=C(/C=C\c1ccccc1OC(=O)c1ccccc1F)c1cc2ccccc2o1 | 3.89
CCOC(=O)C1CCCN(c2c(NCCN(C)Cc3ccccc3)c(=O)c2=O)C1 (centres unmarked) | 7.67
Cc1cc(-c2ccc(C)c(S(=O)(=O)NCc3ccc(OC(C)C)cc3)c2)on1 | 7.33
